Hit rate of the full screen: of about 150,000 compounds, about 540 (0.36%) showed an effect of 50% or more. Some of the results follow.

The assay relates to Plasmodium falciparum. The assay is described as follows: Primary screen in NF54 nanoGlo assay, in single point, at 2uM, 72h; a lower Z score goes with more inhibition. The following applies: timepoint 72 hour. The format is functional, Erythrocyte.
Regarding `COc1ccc(C(=O)N[C@H](C(=O)NCC(C)C)C2CCN(C(C)=O)CC2)cc1`, the “% Inhibition” value worked out at 0% and the Z score is listed as 0.02.
In the same order, the values of `COc1cccc(-c2ccc(N3CCCN(C(=O)CN(Cc4ccccc4)C(=O)C(C)C)CC3)nn2)c1` are -3% and 0.45.
Consider `Cc1cc(C(=O)N2Cc3cnc(N4CCOCC4)nc3C2)c(C)o1`, for which the “% Inhibition” value was -12% and the Z score was 2.23.
As to `O=C(NC1CCCCC1)c1ccc(NC(=O)c2nc[nH]n2)cc1`, the “% Inhibition” value came to 6% and the Z score was -1.04.
In the same order, the values of `O=C(C[C@H](c1ccccc1F)c1c[nH]c2ccc(Cl)cc12)NCc1ccccc1` are 1% and -0.11.
For `Cc1ccncc1C(=O)N1CCC(CCc2noc(N(C)C)n2)CC1`, the “% Inhibition” value came to 3% and the Z score is on record as -0.53.
The matching figures for `Cn1cccc1C(=O)N1CCc2nn(Cc3ccccc3)c(=O)n2CC1`: -10% and 1.11.
The matching figures for `COc1ccc(-c2noc(N(C)CC(=O)Nc3cccc(Cl)c3)n2)cc1`: -3% and 0.4.
In the case of `CC1CC(NCCOc2ccc(Br)cc2)CN1C1CC1` (centres undefined), the “% Inhibition” value was -7% and the Z score amounted to 0.85.
In the same order, the values of `c1cnc2cc(OCCOCCOCCOCCOc3ccc4cccnc4c3)ccc2c1` are 9% and -1.39.
As to `CCc1nn(-c2ccc(OC)cc2)c(Oc2ccccc2C)c1CCC(=O)Nc1ccc(F)cc1`, the “% Inhibition” value is 16% and the Z score is recorded as -2.76.
On to `CC(C)(C)NC(=O)N(CC(=O)Nc1nc(-c2ccccc2)cn1-c1ccc(F)cc1)Cc1ccccc1`, for which the “% Inhibition” value is recorded as -1% and the Z score is 0.13.
The matching figures for `CCc1c(C)sc2ncnc(-c3ccc(S(C)(=O)=O)cc3)c12`: 14% and -1.77.
The matching figures for `CCc1nnc(CNC(=O)c2cnc(C)cn2)s1`: -4% and 0.8.
As for `CCC(C)N(C(=O)Nc1ccc(F)cc1)C(C)CC` (centres undefined), the “% Inhibition” value stood at 4% and the Z score was -0.57.
With `C=CCNC(=O)c1cccc(Br)c1`, the “% Inhibition” value came to 1% and the Z score is -0.12.
Take `COc1cc2c(cc1OC)C(c1cccc(C(F)(F)F)c1)N(C(=O)C(C)Oc1ccccc1)CC2` (centres undefined): the “% Inhibition” value is -6% and the Z score is 0.78.
As for `CCn1c(CCc2ccc(NC(=O)c3n[nH]c4c3CCc3cc(OC)ccc3-4)cc2)nc2ccccc21`, the “% Inhibition” value was -10% and the Z score stood at 0.96.
Take `O=C(CN1CCCC1=O)N[C@@H](C1CCCC1)C(F)(F)F`: the “% Inhibition” value is given as -4% and the Z score stood at 0.42.
As to `O=C(C(c1ccccc1)c1ccccc1)N1CCc2cc(-c3ccncc3)ccc21`, the “% Inhibition” value is recorded as -4% and the Z score worked out at 0.82.
The matching figures for `Cc1cc(CNc2cc(C3CC3)ncn2)n(C)n1`: -3% and 0.34.
Regarding `C[C@H](Cc1cn(C)nn1)Nc1ccc(C(F)(F)F)cn1`, the “% Inhibition” value is listed as -11% and the Z score was 1.2.
As for `CC(C)C1(NC(=O)Cc2c[nH]c3cc(F)ccc23)CC1`, the “% Inhibition” value stood at 0% and the Z score was -0.02.
Take `CN(C[C@H]1CCOC1)C(=O)c1ccco1`: the “% Inhibition” value was determined as 2% and the Z score is reported as -0.28.
In the same order, the values of `COCC1(F)CCN(Cc2c(-c3cc(C)ccc3C)nc3cc(C)ccn23)CC1` are -4% and 0.56.
The matching figures for `CN(Cc1ccsc1)C(=O)CNCCn1cccn1`: -6% and 1.06.
As to `Cc1ccc(C(=O)N2CCc3onc(-c4cccc5ccccc45)c3C2)cc1`, the “% Inhibition” value was -5% and the Z score worked out at 0.75.
`COc1cc(CC(=O)NCC2(N(C)CCO)CCCCC2)ccc1C`: the “% Inhibition” value is recorded as -14% and the Z score worked out at 1.44.
On to `CC(C)N(C)c1ccc(NC(=O)C2=NN(C)C(=O)CC2)cc1F`, for which the “% Inhibition” value was 30% and the Z score is -4.05.
The matching figures for `O=C(Cc1noc2ccccc12)N1CCCO1`: -6% and 0.67.
The matching figures for `O=C(NC1CC2CC2C1)NC1CC2CCC1O2` (centres undefined): 1% and -0.11.
`COc1ccc(NS(=O)(=O)c2ccc(-c3cnc(C4CC4)o3)s2)cc1`: the “% Inhibition” value is on record as 4% and the Z score is on record as -0.46.
The matching figures for `CCOC(=O)N1CCN([C@H]2CCc3ccc(F)cc32)CC1`: -11% and 1.16.
The matching figures for `c1ccc(-c2ncn(Cc3cn[nH]c3-c3cccs3)c2[C@H]2CCOC2)cc1`: -17% and 1.7.
On to `CC(C)C[C@H]1COCCN1CC(N)=O`, for which the “% Inhibition” value is -5% and the Z score came out at 0.75.
In the same order, the values of `Cc1ccc2nc(-c3ccco3)nc(N3CCN(C(=O)Nc4ccc(C(C)C)cc4)CC3)c2c1` are -7% and 1.01.
In the case of `Cc1cccc(Cl)c1CN1CCO[C@H](C2CC2)C1`, the “% Inhibition” value is listed as -5% and the Z score is on record as 0.43.
The matching figures for `CN(CC1=CCCOC1)C(=O)NC[C@H]1CCCN(c2nccn3cnnc23)C1`: -1% and 0.19.
For `c1cc(C[C@@H]2CC[C@H](CN3CCOCC3)O2)cc(N2CCNCC2)c1`, the “% Inhibition” value is -2% and the Z score stood at 0.18.
Regarding `O=C1CCN(C(=O)c2ccc(S(=O)(=O)c3ccccc3)cc2)C2CCCCC12` (centres undefined), the “% Inhibition” value was 21% and the Z score is reported as -2.33.
In the same order, the values of `COc1cccc(CC2(C(=O)N3C[C@H](O)C[C@@H]3c3nc(C)no3)CCCCC2)c1` are -5% and 0.87.
In the same order, the values of `COc1ccccc1-c1cnc(Cn2ccnn2)o1` are -3% and 0.31.

Usually % Inhibition stands for the relative decrease from the control value, in per cent.

For the origin of these results see ChEMBL document CHEMBL4888484, “Replenishing the malaria drug discovery pipeline: Screening and hit evaluation of the MMV Hit Generation Library 1 (HGL1) against asexual blood stage Plasmodium falciparum ,using a nano luciferase reporter read-out” (2022).
